According to PubChem BioAssay AID686979 (National Center for Advancing Translational Sciences (NCATS), 2013):
The campaign covered roughly 420,000 compounds. About 50,000 (12%) were called active. Inconclusive means that the source gave no clear call. Such entries were picked first, then a sample of the others. Calls follow the shape of the dose curve; as a rule, active = well fitted inhibition curve with a large enough effect; inconclusive = small, poorly fitted or top-dose-only effect; inactive = flat fitted curve, though single readings scatter. Potencies of inconclusive entries are left out as doubtful fits.

Experiment: qHTS for Inhibitors of human tyrosyl-DNA phosphodiesterase 1 (TDP1): qHTS in cells in presence of CPT; also: nearly all actives have a fitted effect of over 55% in size
Details: chicken DT40 Tdp1-/-;hTDP1 cells + 20 nM CPT, ATP luminescence, 48 h; activity change, negative = growth inhibition: at 46.2 µM (top of the series) unless noted
Procedure, shortened: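 Cell growth measured by CellTiter-Glo luminescence after a minimum 48 h, 37 C compound exposure with 20 nM CPT in Tdp1-knockout DT40 cells stably expressing hTDP1, seeded 400/well; qHTS titration format.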
% is scaled to controls: 0 for no effect and ±100 for the full control effect; potency is read from the fitted curve at half-maximal effect; tags tell the direction and shape of the fitted curve.

Row | SMILES | Potency | activity change, negative = growth inhibition
1 | O=Cc1ccc(Oc2nc(Cl)ncc2F)cc1 | inconclusive [inhibitor, single point] | 
2 | N#Cc1ccc(COc2cccnc2[N+](=O)[O-])cc1 | inconclusive [inhibitor, single point] | 
3 | Cc1nn(-c2ccc(C(=O)NCC(c3ccco3)N3CCCC3)cc2)c(C)c1Cl (configuration not stated) | inconclusive [inhibitor, single point] | 
4 | CC(C)(C)NC(=O)C1c2ccccc2OCC(=O)N1Cc1ccc2c(c1)OCO2 (configuration not stated) |  | inactive: -28.9%
5 | Cc1nn(Cc2ccc(Cl)cc2Cl)c(C)c1NC(=O)c1nn(C)cc1Cl | active: 8.2 µM | 
6 | COc1ccc2cc(CN(CCO)C(=O)c3ccc(Br)cc3)c(=O)[nH]c2c1 | inconclusive [inhibitor, single point] | 
7 | COc1ccc(S(=O)(=O)Cc2ccc(C(=O)N3CCN(c4ccc(Cl)cc4)CC3)o2)cc1 | inconclusive [inhibitor, single point] | 
8 | C=CCN(c1ccc(C(=O)Nc2ccc(NC(C)=O)cc2)cc1)S(C)(=O)=O | inconclusive [inhibitor, single point] | 
9 | Cc1cc(O)c(C(C)C)cc1NC(=O)c1ccc(Cl)cc1 | inconclusive [inhibitor, partial curve] | 
10 | COc1ccc(C(C)=O)cc1Cn1c(C)c(C(=O)NCC(C)C)sc1=O | inconclusive [inhibitor, single point] | 
11 | COC(=O)c1cc(NC(=O)C2(S(=O)(=O)c3ccc(C)cc3)CC2)cc(C(=O)OC)c1 |  | inactive: -14.4%
12 | S=C(NCc1ccco1)Nc1ccc(Cl)c(Cl)c1 | inconclusive [inhibitor, partial curve, poor fit] | 
13 | O=C(O)CC12CC3CC(C1)CC(n1ncc(NCc4ccc(F)cc4)c(Cl)c1=O)(C3)C2 |  | inactive: 2.86%
14 | COc1cc(OC)cc(C(=O)NC(=S)NCCc2ccccc2)c1 |  | inactive: -29.7%
15 | Cc1cc(/C=C2\SC(N)=NC2=O)c(C)n1-c1ccccc1 | inconclusive [inhibitor, partial curve] | 
16 | Cc1cc(F)ccc1NC(=O)c1csc2c1CCC(C)C2 (configuration not stated) | inconclusive [inhibitor, single point] | 
17 | CN=C(Nc1ccc(C(=O)OC)s1)c1ccc(Cl)cc1 |  | inactive: 12.1%
18 | C[C@H](O)[C@@H]1C(=O)N2CCc3c([nH]c4ccccc34)[C@@H]2C[C@@H]1N(C)C(=O)Nc1ccc(F)cc1 | inconclusive [inhibitor, partial curve] | 
19 | COc1ccc(N2CCN(C(=O)CSc3ncnc4scc(-c5ccc(C)cc5)c34)CC2)cc1 | inconclusive [inhibitor, single point] | 
20 | Nc1nc(N)nc(-c2ccc(Cl)cc2)n1 | inconclusive [inhibitor, partial curve] | 
21 | CC(=O)c1ccc(-c2cnc3c(NC=O)cc(-c4ccc(S(C)(=O)=O)cc4)cn23)cc1 | active: 8.2 µM | 

Row | SMILES | Potency | activity change, negative = growth inhibition
22 | COc1ccc2cc(S(=O)(=O)n3cnc(C)c3)ccc2c1 | inconclusive [inhibitor, single point] | 
23 | CC1=C(C(=O)OCc2ccccc2)C(c2ccoc2)C(C#N)=C(N)O1 (configuration not stated) | inconclusive [inhibitor, single point] | 
24 | CC(C)[C@@H]1CC2=C(C(=O)OC(C)(C)O2)[C@H](CCc2ccccc2)O1 | inconclusive [inhibitor, single point] | 
25 | O=C(c1ccc(S(=O)(=O)Nc2ccc(F)cc2)cc1)N1CCN(c2ccccn2)CC1 | inconclusive [inhibitor, partial curve] | 
26 | Cc1cc(C(=O)Nc2cccc(-c3nc(CNC(=O)c4ccc[n+]([O-])c4)c(C)o3)c2)c(C)o1 |  | inactive: -7.6% [at 9.04 µM]
27 | O=C(CSc1nc2ccccc2s1)N1c2ccccc2Sc2ccc(Cl)cc21 | inconclusive [inhibitor, single point] | 
28 | CN(C)C1=NC[C@H](Cc2ccccc2)N1CCc1cccc(F)c1 | inconclusive [inhibitor, single point] | 
29 | CC(OC(=O)CC1Sc2ccccc2NC1=O)C(=O)N(C)Cc1ccccc1 (configuration not stated) | inconclusive [inhibitor, single point] | 
30 | COc1ccc2[nH]c(=O)c(CN(C)C(=O)C3CCCCC3)cc2c1 | inconclusive [inhibitor, single point] | 
31 | O=C(Nc1nc(-c2cccs2)cs1)c1ccc(S(=O)(=O)N2CCCC2)cc1 | inconclusive [inhibitor, single point] | 
32 | COc1cc(C(C)=O)ccc1OCC(O)CN(CCO)Cc1ccccc1 (configuration not stated) |  | inactive: -2.85%
33 | Cc1ccc(F)cc1-c1cc2nc(NCCCN(C)C)n(C)c(=O)c2s1 | active: 23.1 µM | 
34 | COc1ccc(NC(=O)c2cc(Cl)ccc2NC(=O)c2ccco2)c(OC)c1 | inconclusive [inhibitor, partial curve] | 
35 | O=C(/C=C/c1ccccc1)Nc1cccc(C(=O)N2CCCC2)c1 | inconclusive [inhibitor, partial curve] | 
36 | CS(=O)c1nc(-c2ccc(Br)cc2)cc(-c2ccccc2)c1C#N (configuration not stated) | active: 1.84 µM | 
37 | CC(C)C(=O)Nc1cc2c(cc1C(=O)c1ccccc1)OCCO2 | inconclusive [inhibitor, partial curve] | 
38 | COc1ccc2c(CC(=O)OCC(=O)N(C)c3c(N)n(Cc4ccccc4)c(=O)[nH]c3=O)coc2c1 |  | inactive: 0.919%
39 | CCN(C[C@H]1N[C@@](Cc2ccccc2)(C(=O)OC)[C@H]2C(=O)N(Cc3ccccc3)C(=O)[C@@H]12)C(=O)C1CCCCC1 | inconclusive [inhibitor, single point] | 
40 | Cc1ccc(NC(=O)CN2C(=O)CCc3cc(S(=O)(=O)N4CCOCC4)ccc32)cc1N(C)C |  | inactive: -8.4%
41 | CN(C(=O)c1cccc(NC(=O)Cc2ccc(NC(=O)C3CCN(C(=O)c4ccccc4)CC3)cc2)c1)C1CCCC1 | inconclusive [inhibitor, single point] | 
42 | CCOc1ccc(S(=O)(=O)N2CCCC(C(=O)N3CCOCC3)C2)cc1Cl (configuration not stated) | inconclusive [inhibitor, partial curve] | 
